The other results are listed elsewhere or left out.
Tests used:
Test in all cases: glycan array binding signal (z-score within array); higher = stronger binding
Conditions in all cases: glycan notation: IUPAC condensed, linker removed
[1] = target: Gal(b1-3)GlcNAc(b1-6)[Gal(b1-3)]GalNAc
How it was run: (§1)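 Arrays were curated from the Consortium for Functional Glycomics database, 3228 in total, and kept only where the protein sequence was available. Binding is expressed as a within-array Z-score. This score was averaged across arrays of the same protein sequence at different concentrations or buffers and across linkers, and negative values can be read as non-binding.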

Gal(b1-3)GlcNAc6S = target: Gal(b1-3)GlcNAc6S
How it was run: as §1

[2] = target: Gal(b1-3)[Fuc(a1-4)]GlcNAc
How it was run: as §1

[3] = target: Gal(b1-3)[Fuc(a1-4)]GlcNAc(b1-2)Man
How it was run: as §1

[4] = target: Gal(b1-3)[Fuc(a1-4)]GlcNAc(b1-2)Man(a1-3)[Gal(b1-3)[Fuc(a1-4)]GlcNAc(b1-2)Man(a1-6)]Man(b1-4)GlcNAc(b1-4)[Fuc(a1-6)]GlcNAc
How it was run: as §1

[5] = target: Gal(b1-3)[Fuc(a1-4)]GlcNAc(b1-3)Gal(b1-3)[Fuc(a1-4)]GlcNAc
How it was run: as §1

[6] = target: Gal(b1-3)[Fuc(a1-4)]GlcNAc(b1-3)Gal(b1-4)[Fuc(a1-3)]GlcNAc
How it was run: as §1

[7] = target: Gal(b1-3)[Fuc(a1-4)]GlcNAc(b1-6)GalNAc
How it was run: as §1

[8] = target: Gal(b1-3)[GlcNAc(b1-6)]GalNAc
How it was run: as §1

[9] = target: Gal(b1-3)[Neu5Ac(a2-6)]GalNAc
How it was run: as §1

[10] = target: Gal(b1-3)[Neu5Ac(a2-6)]GlcNAc(b1-4)Gal(b1-4)Glc
How it was run: as §1

[11] = target: Gal(b1-3)[Neu5Ac(b2-6)]GalNAc
How it was run: as §1

Gal(b1-4)Gal = target: Gal(b1-4)Gal
How it was run: as §1

[12] = target: Gal(b1-4)GalNAc(a1-3)[Fuc(a1-2)]Gal(b1-4)GlcNAc
How it was run: as §1

[13] = target: Gal(b1-4)GalNAc(b1-3)[Fuc(a1-2)]Gal(b1-4)GlcNAc
How it was run: as §1

Gal(b1-4)Glc = target: Gal(b1-4)Glc
How it was run: as §1

Gal(b1-4)Glc6S = target: Gal(b1-4)Glc6S
How it was run: as §1

Gal(b1-4)GlcNAc = target: Gal(b1-4)GlcNAc
How it was run: as §1

[14] = target: Gal(b1-4)GlcNAc(a1-6)Gal(b1-4)GlcNAc
How it was run: as §1

Gal(b1-4)GlcNAc(b1-2)Man = target: Gal(b1-4)GlcNAc(b1-2)Man
How it was run: as §1

[15] = target: Gal(b1-4)GlcNAc(b1-2)Man(a1-3)Man(b1-4)GlcNAc(b1-4)GlcNAc
How it was run: as §1

[16] = target: Gal(b1-4)GlcNAc(b1-2)Man(a1-3)[Gal(b1-4)GlcNAc(b1-2)Man(a1-6)]Man(b1-4)GlcNAc(b1-4)GlcNAc
How it was run: as §1

[17] = target: Gal(b1-4)GlcNAc(b1-2)Man(a1-3)[Gal(b1-4)GlcNAc(b1-2)Man(a1-6)]Man(b1-4)GlcNAc(b1-4)[Fuc(a1-6)]GlcNAc
How it was run: as §1

[18] = target: Gal(b1-4)GlcNAc(b1-2)Man(a1-3)[Gal(b1-4)GlcNAc(b1-2)Man(a1-6)][Gal(b1-4)GlcNAc(b1-4)]Man(b1-4)GlcNAc(b1-4)[Fuc(a1-6)]GlcNAc
How it was run: as §1

[19] = target: Gal(b1-4)GlcNAc(b1-2)Man(a1-3)[Gal(b1-4)GlcNAc(b1-2)Man(a1-6)][GlcNAc(b1-4)]Man(b1-4)GlcNAc(b1-4)[Fuc(a1-6)]GlcNAc
How it was run: as §1

[20] = target: Gal(b1-4)GlcNAc(b1-2)Man(a1-3)[GlcNAc(b1-2)Man(a1-6)]Man(b1-4)GlcNAc(b1-4)GlcNAc
How it was run: as §1

[21] = target: Gal(b1-4)GlcNAc(b1-2)Man(a1-3)[GlcNAc(b1-4)][Gal(b1-4)GlcNAc(b1-2)Man(a1-6)]Man(b1-4)GlcNAc(b1-4)GlcNAc
How it was run: as §1

[22] = target: Gal(b1-4)GlcNAc(b1-2)Man(a1-3)[Man(a1-6)]Man(b1-4)GlcNAc(b1-4)GlcNAc
How it was run: as §1

[23] = target: Gal(b1-4)GlcNAc(b1-2)Man(a1-6)Man(b1-4)GlcNAc(b1-4)GlcNAc
How it was run: as §1

[24] = target: Gal(b1-4)GlcNAc(b1-2)Man(a1-6)[GlcNAc(b1-2)Man(a1-3)]Man(b1-4)GlcNAc(b1-4)GlcNAc
How it was run: as §1

[25] = target: Gal(b1-4)GlcNAc(b1-2)Man(a1-6)[Man(a1-3)]Man(b1-4)GlcNAc(b1-4)GlcNAc
How it was run: as §1

[26] = target: Gal(b1-4)GlcNAc(b1-2)[Gal(b1-4)GlcNAc(b1-4)]Man(a1-3)[Gal(b1-4)GlcNAc(b1-2)Man(a1-6)]Man(b1-4)GlcNAc(b1-4)GlcNAc
How it was run: as §1

[27] = target: Gal(b1-4)GlcNAc(b1-2)[Gal(b1-4)GlcNAc(b1-4)]Man(a1-3)[Gal(b1-4)GlcNAc(b1-2)[Gal(b1-4)GlcNAc(b1-6)]Man(a1-6)]Man(b1-4)GlcNAc(b1-4)GlcNAc
How it was run: as §1

[28] = target: Gal(b1-4)GlcNAc(b1-2)[Gal(b1-4)GlcNAc(b1-4)]Man(a1-3)[GlcNAc(b1-4)][Gal(b1-4)GlcNAc(b1-2)Man(a1-6)]Man(b1-4)GlcNAc(b1-4)GlcNAc
How it was run: as §1

[29] = target: Gal(b1-4)GlcNAc(b1-2)[Gal(b1-4)GlcNAc(b1-4)]Man(a1-3)[GlcNAc(b1-4)][Gal(b1-4)GlcNAc(b1-2)[Gal(b1-4)GlcNAc(b1-6)]Man(a1-6)]Man(b1-4)GlcNAc(b1-4)GlcNAc
How it was run: as §1

[30] = target: Gal(b1-4)GlcNAc(b1-2)[Gal(b1-4)GlcNAc(b1-6)]Man(a1-6)[Gal(b1-4)GlcNAc(b1-2)Man(a1-3)]Man(b1-4)GlcNAc(b1-4)GlcNAc
How it was run: as §1

[31] = target: Gal(b1-4)GlcNAc(b1-2)[Gal(b1-4)GlcNAc(b1-6)]Man(a1-6)[Gal(b1-4)GlcNAc(b1-2)Man(a1-3)]Man(b1-4)GlcNAc(b1-4)[Fuc(a1-6)]GlcNAc
How it was run: as §1

[32] = target: Gal(b1-4)GlcNAc(b1-2)[Gal(b1-4)GlcNAc(b1-6)]Man(a1-6)[GlcNAc(b1-4)][Gal(b1-4)GlcNAc(b1-2)Man(a1-3)]Man(b1-4)GlcNAc(b1-4)GlcNAc
How it was run: as §1

[33] = target: Gal(b1-4)GlcNAc(b1-2)[Gal(b1-4)GlcNAc(b1-6)]Man(a1-6)[GlcNAc(b1-4)][Gal(b1-4)GlcNAc(b1-2)[Gal(b1-4)GlcNAc(b1-4)]Man(a1-3)]Man(b1-4)GlcNAc(b1-4)[Fuc(a1-6)]GlcNAc
How it was run: as §1

[34] = target: Gal(b1-4)GlcNAc(b1-3)Gal(b1-3)GalNAc
How it was run: as §1

[35] = target: Gal(b1-4)GlcNAc(b1-3)Gal(b1-3)GlcNAc
How it was run: as §1

[36] = target: Gal(b1-4)GlcNAc(b1-3)Gal(b1-4)Glc
How it was run: as §1

[37] = target: Gal(b1-4)GlcNAc(b1-3)Gal(b1-4)GlcNAc
How it was run: as §1

[38] = target: Gal(b1-4)GlcNAc(b1-3)Gal(b1-4)GlcNAc(b1-2)Man(a1-3)[Gal(b1-4)GlcNAc(b1-3)Gal(b1-4)GlcNAc(b1-2)Man(a1-6)]Man(b1-4)GlcNAc(b1-4)GlcNAc
How it was run: as §1

[39] = target: Gal(b1-4)GlcNAc(b1-3)Gal(b1-4)GlcNAc(b1-2)Man(a1-3)[Gal(b1-4)GlcNAc(b1-3)Gal(b1-4)GlcNAc(b1-2)Man(a1-6)]Man(b1-4)GlcNAc(b1-4)[Fuc(a1-6)]GlcNAc
How it was run: as §1

B1: Mg3lysM (Mycosphaerella graminicola) (protein)
chain: APQNPPTSCSAAPQPTGTGSPGTVCGSTTFTNYTVKAGDTLGAIAKQYNSGVCDIAKVNGIDNPDYIKPDQVLSIPANCVTPDNTSCVKPVPVITNTCVLGVGSTYTVKSGDSFSAIATSFNITLASLEARNPQIPNYDLIFPGQVINTPLCPNSVCDSIGTYVIESGDIFYNLAQSNNVTVGQLESLNVNVNVTDIHPGDIIILPHNCHNITASA
- glycan array binding signal (z-score) [1]: -0.022
- glycan array binding signal (z-score) (Gal(b1-3)GlcNAc6S): -0.048
- glycan array binding signal (z-score) [2]: -0.067
- glycan array binding signal (z-score) [3]: -0.155
- glycan array binding signal (z-score) [4]: -0.015
- glycan array binding signal (z-score) [5]: -0.091
- glycan array binding signal (z-score) [6]: -0.07
- glycan array binding signal (z-score) [7]: -0.127
- glycan array binding signal (z-score) [8]: 0.021
- glycan array binding signal (z-score) [9]: -0.091
- glycan array binding signal (z-score) [10]: -0.068
- glycan array binding signal (z-score) [11]: -0.03
- glycan array binding signal (z-score) (Gal(b1-4)Gal): -0.148
- glycan array binding signal (z-score) [12]: -0.068
- glycan array binding signal (z-score) [13]: -0.137
- glycan array binding signal (z-score) (Gal(b1-4)Glc): -0.084
- glycan array binding signal (z-score) (Gal(b1-4)Glc6S): -0.028
- glycan array binding signal (z-score) (Gal(b1-4)GlcNAc): -0.075
- glycan array binding signal (z-score) [14]: -0.191
- glycan array binding signal (z-score) (Gal(b1-4)GlcNAc(b1-2)Man): -0.039
- glycan array binding signal (z-score) [15]: -0.065
- glycan array binding signal (z-score) [16]: -0.033
- glycan array binding signal (z-score) [17]: -0.083
- glycan array binding signal (z-score) [18]: -0.121
- glycan array binding signal (z-score) [19]: -0.225
- glycan array binding signal (z-score) [20]: -0.102
- glycan array binding signal (z-score) [21]: -0.082
- glycan array binding signal (z-score) [22]: -0.041
- glycan array binding signal (z-score) [23]: -0.091
- glycan array binding signal (z-score) [24]: -0.074
- glycan array binding signal (z-score) [25]: 0
- glycan array binding signal (z-score) [26]: -0.021
- glycan array binding signal (z-score) [27]: -0.029
- glycan array binding signal (z-score) [28]: -0.065
- glycan array binding signal (z-score) [29]: -0.023
- glycan array binding signal (z-score) [30]: -0.094
- glycan array binding signal (z-score) [31]: -0.096
- glycan array binding signal (z-score) [32]: -0.113
- glycan array binding signal (z-score) [33]: -0.081
- glycan array binding signal (z-score) [34]: -0.133
- glycan array binding signal (z-score) [35]: -0.085
- glycan array binding signal (z-score) [36]: -0.067
- glycan array binding signal (z-score) [37]: -0.09
- glycan array binding signal (z-score) [38]: -0.112
- glycan array binding signal (z-score) [39]: -0.044
